Drawing on PubChem BioAssay AID488969 (Vanderbilt High Throughput Screening Facility, 2010), this text covers z-score for 112 compounds.

Whole data set: some 110,000 compounds, median “z-score” near -0.1, cut for the highest 2% near 2. The list shows a part of the results. Activity calls are given as the source filed them.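 Rule for the calls: active = z-score in the third read window above 3 or below -3; inactive = the rest.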

The assay concerns the target Metabotropic glutamate receptor 8 (Rattus norvegicus) (UniProt P70579). The experiment in a line: mGluR8 Gi/Go-coupled signaling modulation – cell-based, rat, thallium flux, HTS, primary screen (AID 488969). The conditions noted are these: HEK293 rat mGluR8, GIRK (G protein-gated inwardly rectifying potassium channel) thallium flux, FluoZin2; at 10 µM; stronger effect = higher value; submaximal glutamate (EC20) added with thallium.
Chain of UniProt P70579 (P70579 whole entry, looked up): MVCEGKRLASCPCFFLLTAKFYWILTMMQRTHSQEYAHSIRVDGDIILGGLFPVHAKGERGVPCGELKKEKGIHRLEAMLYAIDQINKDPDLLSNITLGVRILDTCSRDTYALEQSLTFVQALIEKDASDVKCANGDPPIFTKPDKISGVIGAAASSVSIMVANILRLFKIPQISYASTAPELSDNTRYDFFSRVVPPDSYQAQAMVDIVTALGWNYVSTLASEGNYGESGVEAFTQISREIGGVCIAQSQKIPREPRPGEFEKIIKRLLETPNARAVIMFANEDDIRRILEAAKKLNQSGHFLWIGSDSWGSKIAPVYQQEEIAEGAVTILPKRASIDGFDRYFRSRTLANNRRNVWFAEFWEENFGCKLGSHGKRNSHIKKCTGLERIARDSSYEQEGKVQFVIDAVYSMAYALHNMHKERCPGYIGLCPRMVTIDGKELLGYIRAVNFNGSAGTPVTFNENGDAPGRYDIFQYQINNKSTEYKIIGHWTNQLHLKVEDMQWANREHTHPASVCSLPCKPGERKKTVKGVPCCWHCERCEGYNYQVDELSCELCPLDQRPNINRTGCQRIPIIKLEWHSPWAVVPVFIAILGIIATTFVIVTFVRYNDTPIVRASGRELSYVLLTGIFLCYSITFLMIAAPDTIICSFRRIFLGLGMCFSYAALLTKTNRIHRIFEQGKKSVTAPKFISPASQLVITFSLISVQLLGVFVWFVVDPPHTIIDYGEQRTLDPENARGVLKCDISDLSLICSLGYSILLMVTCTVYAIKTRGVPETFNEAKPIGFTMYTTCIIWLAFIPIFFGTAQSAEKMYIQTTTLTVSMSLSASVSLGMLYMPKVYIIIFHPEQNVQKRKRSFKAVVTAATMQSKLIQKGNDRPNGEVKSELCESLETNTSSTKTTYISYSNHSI
`O=C(COc1ccc(Cl)cc1Cl)NCCC1=CCCCC1` returned a z-score of -0.104. As for `CCN(CC(O)Cn1c2ccccc2c2ccccc21)S(=O)(=O)c1ccc(F)cc1` (configuration not stated), the figure is -0.0975; as for `Cn1c(SCC(=O)NC(C)(C)C)nnc1-c1cccc(NC(=O)c2ccccc2F)c1`, -0.127. In turn, `CCCCCCn1c2c(c(=N)c3c1CCC3)CCC2` displayed a z-score of 1.81. As for `COc1ccc(CN(C)CC(=O)NC(=O)NCc2ccccc2)cc1OC`, the figure is active: 5.52; as for `COc1cc(OC)c2c(N)c(C#N)c(C(F)(F)C(F)(F)F)nc2c1`, -0.515. For the compound `COCCNC(=O)C(c1cccs1)N(Cc1ccccc1)C(=O)Cn1nnc2ccccc21` (configuration not stated), the z-score stood at 0.806. In turn, `CCC(=O)Nc1ccc(C(=O)c2ccccc2)cc1` yielded a z-score of 0.687. Under `Cc1ccc(S(=O)(=O)NCC(=O)N(CC(=O)NC(C)(C)C)Cc2cccs2)cc1` stands -0.259; under `CC(C(=O)Nc1ccc(Cl)cc1)c1ncc(C(F)(F)F)cc1Cl` (configuration not stated), -0.108.

On to `COc1cc(NC(=O)CN2CCCCC2)c(C)cc1[N+](=O)[O-]`, for which the z-score was -0.415. `COc1ccc(/C=N/NC(=O)Cc2csc(Nc3cccc(C(F)(F)F)c3)n2)cc1C` registered a z-score of -0.115.

`O=C(O)c1cc(S(=O)(=O)N2CCOCC2)ccc1N1CCOCC1` had a z-score of 0.162. Under `Cc1nnc(SCC(=O)Nc2ncc(Cl)cc2Cl)n1Cc1ccccc1` stands -0.956; under `COC(=O)Nc1snnc1C`, -0.189; under `CCc1ccc(NC(=O)N(CCN2CCOCC2)C2CCN(C(C)=O)CC2)cc1`, 0.399.

As to `Cc1sc(NC(=O)CSc2nnc(C)c(=O)[nH]2)c(C#N)c1C`, the z-score was -0.571. `Cn1ncc(C#N)c1NC(=O)C1CC(c2c(F)cccc2Cl)=NO1` (configuration not stated) displayed a z-score of -0.332. Consider `O=C1C2CC=C(Cl)CC2C(=O)N1CCC[n+]1cccc2ccccc21` (configuration not stated), for which the z-score is 0.155. Regarding `COc1ccc(C2SCC(C(=O)O)N2C(C)=O)cc1OC` (configuration not stated), the z-score was found to be 0.334.

For `CN(C)S(=O)(=O)Oc1cccc(C(=O)Nc2ccc(Cl)c(Cl)c2)c1`, the z-score is -0.319.

With `O=C1C(=Cc2cccs2)C(=O)c2ccccc21`, the z-score is -0.228. As for `O=C(c1cnn2c1NC(c1ccco1)CC2C(F)(F)F)N1CCN(c2cccc(Cl)c2)CC1` (configuration not stated), the figure is -0.25; as for `Cc1ccc(-c2csc(NC(=O)Cn3cnc4c3c(=O)n(C)c(=O)n4C)n2)cc1C`, -0.0107; as for `CC(C)NC(=O)CCNC(=O)c1ccc(F)cc1`, -0.0764. `O=C(Nc1cccc(Cn2cccn2)c1)c1cc2c(s1)CCCC2` gave a z-score of -0.413. As to `Cn1cc(C(=O)N/N=C/C2=C(N3CCOCC3)C(=C\c3ccccc3)/CC2)ccc1=O`, the z-score is -0.485. With `CC(C)(C)c1ccc(C(=O)N2CCN(CCNC(=O)C(=O)NCc3ccccc3)CC2)cc1`, the z-score was -0.158.

Regarding `O=C(NNc1cccc(Cl)n1)Nc1ccccc1`, the z-score stood at 0.335. As for `Cc1ccccc1C(=O)NC(=S)NCCN1CCOCC1`, the figure is -0.215. As for `COC(=O)N/N=C/c1c(C)c(C(=O)c2ccc(F)cc2)n2ccccc12`, the figure is -0.428. As for `CC(C)(C)Cc1nc(-c2ccc(Cl)cc2)no1`, the figure is 0.892; as for `O=C(COC(=O)[C@H](Cc1c[nH]c2ccccc12)NC(=O)c1ccc(Cl)cc1)Nc1ccc2c(c1)OCO2`, 0.558; as for `CCOC(=O)c1ccc(NC(=O)CNC(=O)C23CC4CC(CC(C4)C2)C3)cc1`, 0.204. As to `COc1ccc(OC)c(/C=C/C(=O)N2C(=O)c3cccc(N)c3C2=O)c1`, the z-score was found to be 0.359. Under `CN(C)c1ccc(NC(=O)Nc2cccc(Cl)c2)cc1` stands -0.185; under `CCN(CC)S(=O)(=O)c1ccc(NC(=O)c2cc(-c3ccccc3)nc3ccccc23)cc1`, -0.15. Under `C=C(C)C1CC=C(C)/C(=N\NC(=S)Nc2ccc(C)cc2)C1` (configuration not stated) stands 0.799. In turn, `Cc1cc(NC(=O)CSc2c3c(nc4ccccc24)CCC3)no1` came in with a z-score of -0.266. As for `CC(O/N=C\c1ccccc1O)C(=O)Nc1ccccc1C(=O)N1CCOCC1` (configuration not stated), the figure is -0.13; as for `Cc1cc(Cl)ccc1NC(=S)N1CCOCC1`, -0.185. In turn, `CC(C)(C)c1cc(NC(=O)CSc2nnc(N)s2)n(-c2ccccc2)n1` yielded a z-score of -0.234. As for `O=C(O)CNC(=O)c1ccccc1F`, the figure is 0.194; as for `Cc1cc(C)c(O)c(-c2cc(C(=O)NCc3ccccc3)[nH]n2)c1`, -0.0726; as for `Cc1cccc(Nc2nc(NCC3CCCO3)nc(N)c2[N+](=O)[O-])c1` (configuration not stated), -0.309.

`CCOc1ccc(N(CC(=O)Nc2ccc3c(c2)OCCO3)S(=O)(=O)c2c(C)noc2C)cc1` came in with a z-score of 0.0859. The compound `O=C(COC(=O)c1ccc(-c2ccc([N+](=O)[O-])cc2)o1)NC(=O)NC1CCCCC1` came in with a z-score of -0.324. Under `O=C(NCc1ccco1)C(c1ccccc1)N(Cc1ccccc1)C(=O)Cn1nnc2ccccc21` (configuration not stated) stands 0.0768; under `Cn1c(CN2CCCC2)nc2cc(NS(=O)(=O)c3ccc(Cl)cc3)ccc21`, -0.015; under `COC(=O)Cc1ccc(NC(=S)NCc2ccc(Cl)cc2)cc1`, -0.427. As to `Cc1ccccc1/C=C/c1nc2ccccc2c(=O)n1CCc1ccccc1`, the z-score is -0.318. As for `Cc1ccc(C)c2[nH]c(=O)c(CCNC(=O)c3ccc(Br)o3)cc12`, the figure is -0.0291; as for `CC(C)c1nc2oc3c(NCC4CCCO4)ncnc3c2c2c1COC(C)(C)C2` (configuration not stated), -0.711. Under `CC(=O)c1cccc(N=C2NC(=O)C(CO)(CO)S2)c1` stands -0.0146.

`COc1ccc(CCNC(=O)Cn2nc([N+](=O)[O-])c(Br)c2C)cc1OC`: the z-score was -0.251.

The compound `COc1cccc(C(=O)Nc2ccc(NC(=O)C3CC3)cn2)c1` showed a z-score of -0.97. As to `Cc1c(CCOC(=O)CC23CC4CC(CC(C4)C2)C3)sc[n+]1CC(=O)c1ccc(Br)cc1`, the z-score was 0.0917. `CCOC(=O)c1ccccc1NC(=O)CSc1nc2ccccc2n1CC(=O)N1CCCC1` returned a z-score of -0.472. Compound `CC(=O)c1cc(OC(=O)N2CCOCC2)ccc1OC(=O)N1CCOCC1` registered a z-score of -0.376. Consider `COc1ccc(C2=NNC(=O)CC2)cc1`, for which the z-score was -0.018. Under `CSc1nc2ccccc2c(=O)n1N` stands 0.226; under `CN(C)C(CNC(=O)CCCOc1ccccc1)c1ccco1` (configuration not stated), 0.0291. Take `COC(Cn1c(C)c(C(C)=O)c(C(C)=O)c1C)OC`: the z-score was -0.0274. Under `O=S(=O)(c1ccc(Cl)cc1)n1ccc(-c2cccc(OCc3c(F)cccc3Cl)c2)n1` stands -0.155; under `O=C(c1cccs1)N1CCC2(O)CCCCC2C1c1ccc(F)cc1` (configuration not stated), 0.0895. As for `CCc1nnc(NC(=O)c2ccc(S(=O)(=O)N3CCCc4ccccc43)cc2)o1`, the figure is 0.372. Under `CCCn1c(SC(C)C(=O)O)nc2ccccc21` (configuration not stated) stands -0.579. As to `N#CSCC(=O)c1cccc2ccccc12`, the z-score was 1.08.

`CN1CCN(C(=O)C2CC(=O)N(c3ccc(F)c(Cl)c3)C2)CC1` (configuration not stated) came in with a z-score of -0.219. `O=C(Nc1ccc(Cl)cc1)C1C2CCC3C(CCC21)C3(Cl)Cl` (configuration not stated) gave a z-score of -0.136. As for `COc1ccc(/C=C2\COc3ccccc3C2=O)cc1OC`, the figure is -0.0225.

For `COc1cc(OC)cc(C(=O)NCC(=O)OCc2csc(-c3ccccc3)n2)c1`, the z-score is -0.33.

With `COC(=O)\C(C(C)=O)=C(/C=C/C=C/N(C)C)N(C)C`, the z-score was -0.286. `CCc1cc2c(SCC(=O)O)ncnc2s1` gave a z-score of -0.293. As for `CCC(=O)Nc1ccc(C(=O)N/N=C/c2ccccc2[N+](=O)[O-])cc1`, the figure is -0.12; as for `OC(CN1CCOCC1)CN1CCOCC1`, 0.593; as for `Cn1c(=O)c2c(nc(Oc3ccccc3)n2C)n(C)c1=O`, -0.175.

`CCCCn1c(O)c(/C=C2\C=NN=C2c2ccccc2)sc1=S` showed a z-score of 0.0136. As for `CCOc1ccc2nc(NC(=O)Cc3cccs3)sc2c1`, the figure is -0.235.

`COc1ccc(Cl)cc1C(=O)Nc1ccc(N(C)C(C)=O)cc1` returned a z-score of 0.083. As for `CSCCC(NS(=O)(=O)c1ccc2ccccc2c1)C(=O)O` (configuration not stated), the figure is 1.51; as for `Cc1ccc(SCC(=O)Nc2ccc(S(=O)(=O)Nc3nccs3)cc2)cc1`, 0.625; as for `CC(C)Cc1nc(Cl)c(C#N)c2c1CCCC2`, -0.271. Under `CCOC(=O)C1=C(C)NC2=C(C(=O)CCC2)C1c1cccs1` (configuration not stated) stands -0.55; under `Cc1cccc(C(=O)N2CCC(c3nc(-c4ccc(S(=O)(=O)N5CCOCC5)cc4)no3)CC2)c1`, -0.323.

With `O=C(Nc1ccc2c(c1)nc1n2CCN(C2CCCCC2)C1)NC1CCCCC1`, the z-score was -0.198. As for `COc1ccc(CNC(=O)CCn2cccc2)cc1`, the figure is 0.242; as for `O=C(Nc1ccccc1N1CCCC1)c1cccnc1`, -0.262. As for `O=C(Nc1c(-c2ccccc2)nc2ccccn12)c1cccs1`, the figure is -0.239; as for `C/C(=N\NC(=O)c1ccc(O)cc1)c1ccc2c(c1)Nc1ccccc1S2`, 0.00996; as for `COc1ccc(/C=C2\SC(=O)N=C2N)cc1OC`, 0.0136. The compound `O=C(CCCOc1ccc(Cl)cc1Cl)N1CCc2ccccc2C1` gave a z-score of -0.129. With `O=C(CCCc1ccccc1)N1CCc2ccccc21`, the z-score was -0.217.

With `O=C(Nc1ccc(-c2nc3ccccc3[nH]2)cc1)C1CCCO1` (configuration not stated), the z-score was -0.398.

In turn, `CC(C)NC(=O)c1ccc(C2SCC(=O)N2Cc2ccccc2)cc1` (configuration not stated) returned a z-score of -0.906. `Cc1ccc([N+](=O)[O-])cc1-c1ccc(/C=C(\C#N)c2[nH]nc(N)c2C#N)o1` had a z-score of -0.0051. As to `CC(C)CCn1c(CN(C)Cc2ccccc2)nc2c1c(=O)n(C)c(=O)n2C`, the z-score was determined as 0.0888. Turning to `CCOc1cc(C2NC(=O)N(C)C(C)=C2C(=O)OC)cc(Br)c1O` (configuration not stated), the z-score was determined as 0.0727. Under `Cc1cc2nc(SCCN3CCOCC3)[nH]c2cc1C` stands -0.235; under `CCOc1cc2c(cc1OC)C(NC(=O)C(F)(F)F)CC2=O` (configuration not stated), 0.226. As for `O=C(COC(=O)Cc1c(Cl)cccc1Cl)NCCC1=CCCCC1`, the figure is -0.34; as for `c1ccc2[nH]c(SCc3ccc(-c4nnco4)cc3)nc2c1`, -0.713. With `Cc1cc(=O)[nH]c(COc2ccccc2)n1`, the z-score worked out at 0.172. As for `c1ccc(-c2oc3ncnc(NCCN4CCOCC4)c3c2-c2ccccc2)cc1`, the z-score was -0.115. As for `COc1ccc2c(-c3ccccc3)cc3nnnn3c2c1`, the figure is -0.74. For `CCCCc1cc(=O)oc2cc(C)cc(OCc3nn[nH]n3)c12`, the z-score is -0.257. Under `Cc1ccc(Oc2ncccc2/C=N/OCc2ccc(Cl)cc2Cl)cc1` stands 0.00198; under `Cc1cc(OCCn2ccnc2)cc(C(C)C)c1`, -0.207; under `Cc1ccc(Cl)cc1OCC(=O)NCCOC(=O)Nc1sc(=S)n(C)c1C`, -0.181. As for `CCOC(=O)c1c(NC(C)=O)sc2c(O)c(Br)ccc12`, the figure is -1.3. Consider `CCN(CC)S(=O)(=O)c1cc(C(=O)Nc2ccccc2C(=O)O)ccc1OC`, for which the z-score was -1.44.

`CCn1cc(C(=O)O)c(=O)c2cc(S(=O)(=O)N(C)C)ccc21` showed a z-score of -0.105.
